The full ranking holds about 33,000 sequences; the median of “E-score (-0.5 to 0.5)” is about -0.04, and the highest 2% start at about 0.36. The list shows a part of the results.
The sequences below were run against T1, Hmlalpha2 (UniProt P0CY09) (assay: PBM E-score (8-mer binding enrichment) (E-score (-0.5 to 0.5)); higher = stronger / more preferred TF binding; most listed sequences are background and not binding sites). Conditions: protein concentration: 200 nM; construct: GST-full length.
T1 sequence: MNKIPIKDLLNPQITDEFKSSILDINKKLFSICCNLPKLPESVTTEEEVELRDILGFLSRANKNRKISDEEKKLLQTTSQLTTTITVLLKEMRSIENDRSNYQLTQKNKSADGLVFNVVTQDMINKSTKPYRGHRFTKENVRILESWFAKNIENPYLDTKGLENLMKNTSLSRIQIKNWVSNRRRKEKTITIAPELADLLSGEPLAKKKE
In short: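 Yeast transcription factors carrying a GST tag, as full-length proteins or DNA-binding domains, were produced by PURExpress in vitro transcription/translation. About 100-200 nM protein was applied to universal all-10-mer Agilent arrays, double-stranded by primer extension on fresh or once-stripped slides. Bound protein was detected with fluorescent anti-GST, and scans were normalised with masliner. The Universal PBM Analysis Suite gave each ungapped eight-base word, pooled with its reverse complement, an E-score, a modified Wilcoxon-Mann-Whitney statistic.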

Sequence | PBM E-score
GGTTGCGA | -0.0767
AAGTTGCG | 0.0701
ATAGCAAT | 0.118
AATGTTGC | 0.169
CCCAGGGG | -0.247
ACAAGACT | 0.0694
GGTAGCCA | -0.108
AGAGCAGG | -0.0266
TATCGAGA | -0.0709
CTGACCAC | -0.173
GCCAAGAC | -0.161
ATTCGCCA | -0.108
AAAATCTC | 0.0731
CTTCGAGC | -0.117
CATTAAAA | 0.164
ATGCTAAT | 0.167
CGTGATGA | 0.0439
GAGCTTAC | 0.0644
AAGTCGCT | -0.126
CGCCGGGC | -0.299
GGAGGCCC | -0.39
TATTGTAA | 0.318
TCACCTCA | 0.00387
CGGCTCAA | -0.0531
AGGCCTCC | -0.157

Sequence | PBM E-score
ATTGGCTG | -0.141
GGATTCAC | -0.0617
GCTAACCA | -0.16
AGCCCTAG | -0.0567
GACCAAAA | 0.0759
AACTCAGT | -0.0844
GCGGATAA | 0.00496
CCCGGGGC | -0.318
ATGTACAC | 0.43
CACGCGGA | 0.109
GAACCATC | -0.0493
CCCTGACG | -0.351
AAAGCATA | 0.104
ATCTATAA | 0.117
GGGCTCCA | -0.303
CAGGTACA | 0.181
CATATTCC | -0.143
CCACCCAG | -0.23
AACTACAC | 0.42
CCGCCAAA | -0.105
TACACAAA | 0.431
GTATGGAA | -0.205
GATAGTCA | -0.124
CCTGTGAA | 0.0484
GGGGTAGA | -0.0339

Sequence | PBM E-score
GCTCTTAA | -0.00267
AATAGCTA | 0.014
CCGGATAA | -0.137
ATTTTTCG | 0.0941
GGGTTCAA | 0.0465
CTCTCCCA | -0.23
GTTGGAGA | 0.083
ACGGCAGG | -0.291
GTATATGA | 0.17
ATTTACTA | 0.232
CTATTGTC | -0.244
ACGGGAAT | -0.145
ACCAAGTA | 0.156
GATGGAAA | -0.0196
TCCTCTCA | -0.115
GTTGTGAA | 0.226
CTTAGATA | -0.0381
GGGTCTAA | 0.0219
GTCGGGTA | -0.092
ATACCGTA | -0.0794
ATGGCCAT | -0.00733
AATCGCCT | -0.0652
CTGTTCGC | 0.0955
GTTACTAA | 0.237
GCCCACCC | -0.185

Sequence | PBM E-score
CTGGGGTA | -0.118
GGCCTACA | 0.0554
CCGTACAG | -0.0438
CGGGGAAC | 0.00808
AAAATCGC | -0.182
AACGCTCG | -0.0324
CCAAACTC | -0.0887
GATGGGGC | -0.0438
ACCCGCGC | 0.183
CGACCTAC | -0.141
AACAATCA | 0.208
CAATCACA | 0.217
AAACCCAA | 0.0846
ATGAATTC | -0.0161
ATCATAGG | -0.0906
ACCGTAGT | -0.225
CACTTTCC | -0.158
ACCCGAAG | -0.231
GCGTTAGC | 0.222
CAAATTAC | 0.264
GAGACGAC | -0.19
CTTAGGAA | 0.0437
AGGTGTCA | -0.0246
TGTTCAAA | 0.352
GGGTGCGA | -0.161

Sequence | PBM E-score
GTTCAGGA | -0.0739
AAAAATCA | 0.111
CCATACAA | -0.0282
CCGAAAAA | 0.0733
TCAACTAA | 0.147
GACGTTAA | 0.181
AGAGTAAC | -0.0242
ACGATAGG | -0.204
AACTTAGG | 0.0845
GTCTGGCA | -0.318
CGTGTACC | 0.326
CACATACG | 0.0723
ACGCGATA | 0.324
CAGTTGGC | -0.147
GGCCATTA | 0.0102
CGAGGAAC | 0.00528
ATTCTGGA | 0.155
ACTATTAA | 0.165
AGAAATGC | 0.0811
ATTAGTCA | 0.0626
AAGCAGCA | -0.102
GTTGCCAA | 0.0594
AATATCGG | -0.0765
CGGTCTGA | -0.0313
AATCGCAG | -0.0368

Sequence | PBM E-score
TCAGACAA | -0.0193
CAGATAAA | -0.0551
GGGCGATA | -0.245
GTGCCCCA | -0.197
AATTTCTA | 0.189
AAACCCGG | -0.153
ATTGGATG | 0.105
GATCTTTA | 0.131
AGGTCTTC | -0.234
GACCACCA | -0.179
ACCTAGCT | -0.179
AATGGAGT | -0.0239
ATGTCCTG | 0.0247
AAAATCAT | 0.12
CGAACAGA | 0.0105
ACCAAACC | -0.15
GTCGCGAA | -0.0825
ACCGACAT | 0.198
GAGAGCCA | -0.126
CCGGGTTC | -0.0699
TATCCGAA | -0.122
AAGATCAC | -5e-05
CCAGGCTC | -0.141
GCCAGGTA | 0.057
AACTATAC | 0.227

Sequence | PBM E-score
AACGTTAC | 0.15
GAAGATCA | -0.0916
GCGATGCA | -0.214
CCTGGGAG | -0.255
GGGTGACC | -0.126
AAGGGCTA | -0.183
CGAGGATC | -0.124
GACATTCC | -0.0517
CTTGCACC | -0.238
ACGCACAG | 0.167
CACTCATG | -0.084
CCGCCCAC | -0.141
AGGCGCTA | 0.0751
CAAAACAA | 0.151
AGTTCATC | -0.00587
AAGGATGT | 0.159
GGCGGGTA | -0.165
CACCGTTA | 0.104
AGGCTAAA | -0.0131
AAATATTG | 0.0291
CCGGCAAG | -0.103
GTCTATGA | -0.0293

— the supplement of paper PMC3334620
